The record followed here is patent US20220227872A1 (LUDWIG INSTITUTE FOR CANCER RESEARCH, published 2022).

For the assay, the target named is T1, murine tumor endothelial marker 1 (TEM1) on cells (murine, UniProt Q91V98 18-765).
T1 construct: also called mTEM1; murine TEM1
T1 sequence: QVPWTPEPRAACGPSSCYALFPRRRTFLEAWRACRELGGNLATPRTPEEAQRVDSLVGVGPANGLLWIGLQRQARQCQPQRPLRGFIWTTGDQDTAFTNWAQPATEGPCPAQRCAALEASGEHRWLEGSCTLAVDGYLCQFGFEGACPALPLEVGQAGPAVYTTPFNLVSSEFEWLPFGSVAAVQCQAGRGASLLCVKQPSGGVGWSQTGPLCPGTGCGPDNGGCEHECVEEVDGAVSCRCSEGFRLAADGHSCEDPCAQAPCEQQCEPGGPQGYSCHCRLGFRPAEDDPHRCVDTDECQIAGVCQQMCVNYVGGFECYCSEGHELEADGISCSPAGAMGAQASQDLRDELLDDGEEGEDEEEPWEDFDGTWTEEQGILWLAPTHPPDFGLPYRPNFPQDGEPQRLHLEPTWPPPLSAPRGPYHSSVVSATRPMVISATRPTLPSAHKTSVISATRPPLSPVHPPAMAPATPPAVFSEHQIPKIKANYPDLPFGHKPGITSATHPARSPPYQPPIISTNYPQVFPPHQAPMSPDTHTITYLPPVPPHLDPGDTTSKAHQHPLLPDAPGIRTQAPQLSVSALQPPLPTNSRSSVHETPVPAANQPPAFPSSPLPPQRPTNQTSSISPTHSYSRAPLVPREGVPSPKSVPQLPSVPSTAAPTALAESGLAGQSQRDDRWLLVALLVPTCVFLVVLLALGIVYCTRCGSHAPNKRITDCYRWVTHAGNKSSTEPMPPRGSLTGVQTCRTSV
The assay is described as follows: FACS, scFv-Fc 0.1 µg/ml on 2H11 cells. How it is done:
Adherent cells were detached using 10 mM EDTA, counted and resuspended in fresh, complete culture medium. All subsequent steps were performed on ice. […] After washing three times with FACS buffer, the secondary antibody, Alexa Fluor 647 AffiniPure Goat Anti-Human IgG (Jackson Immunoresearch, #109-605-098, 1:200 dilution) was added. Following incubation for 30 min the cells were washed again three times. Immediately before data acquisition, dead cells were stained with 4′,6-Diamidino-2-phenylindole (DAPI, 1:2000 dilution). Data was acquired using an LSR-II flow cytometer equipped with […] software (BD Biosciences). Data analysis and plotting were carried out using FlowJo v10 (FlowJo LLC).

B1: anti-TEM1 scFv-Fc fusion 1C1mut (Fc fusion)
VH: QVQLVQSGAEVKKPGSSVKVSCKASGGTFSSYAISWVRQAPGQGLEWMGGIIPIFGTANYAQKFQGRVTITADKSTSTAYMELSSLRSEDTAVYYCASLISYYGDPTGFDYWGQGTLVTVSS
VL: QPVLTQPPSASGTPGQRVTIS[sequence of about 80 residues not given]FGGGTKLTVL
notes: also called 1C1mut variant scFv-Fc
For the molecule B1, the binding result was “binds”.
